Data as given in patent publication US8883449B2, “Single-chain insulin” (Novo Nordisk A/S, priority 2003, dated 2014).
At least one peptide structure holds a part that was inferred or is arguable (an end, a ring closure or a residue). Where a SMILES comes first, the peptide text is derived from it. Bridges are numbered along the chain shown (N, C = ends). Where no end group is shown, it is not given here.

These compounds were tested against human insulin receptor (Homo sapiens, UniProt P06213) (assay: Insulin receptor binding of single-chain insulins (SPA antibody capture assay), relative to human insulin). Conditions: Table 1.
human insulin receptor, sequence (P06213 28-746 isoform P06213-2 limits assumed): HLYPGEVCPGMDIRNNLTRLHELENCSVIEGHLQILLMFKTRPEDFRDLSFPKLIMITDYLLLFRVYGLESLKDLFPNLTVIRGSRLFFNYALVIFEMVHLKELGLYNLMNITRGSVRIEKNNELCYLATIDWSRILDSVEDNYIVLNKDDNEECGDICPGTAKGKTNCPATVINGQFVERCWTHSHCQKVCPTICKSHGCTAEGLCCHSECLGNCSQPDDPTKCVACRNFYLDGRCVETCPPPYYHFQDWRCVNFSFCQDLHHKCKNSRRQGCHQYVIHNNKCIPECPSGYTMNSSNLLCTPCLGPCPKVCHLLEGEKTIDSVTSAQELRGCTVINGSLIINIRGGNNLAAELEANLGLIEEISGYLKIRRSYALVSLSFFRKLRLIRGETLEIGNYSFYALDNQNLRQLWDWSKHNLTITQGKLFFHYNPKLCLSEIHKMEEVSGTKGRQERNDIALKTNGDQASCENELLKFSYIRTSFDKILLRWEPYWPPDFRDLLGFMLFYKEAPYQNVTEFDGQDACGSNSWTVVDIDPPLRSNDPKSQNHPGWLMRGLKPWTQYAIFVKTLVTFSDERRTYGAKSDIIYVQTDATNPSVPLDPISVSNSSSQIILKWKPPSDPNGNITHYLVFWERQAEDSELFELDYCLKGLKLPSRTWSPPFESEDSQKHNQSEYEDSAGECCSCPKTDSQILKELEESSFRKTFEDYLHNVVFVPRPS
human insulin receptor, sequence (P06213 763-1382 partner limits assumed): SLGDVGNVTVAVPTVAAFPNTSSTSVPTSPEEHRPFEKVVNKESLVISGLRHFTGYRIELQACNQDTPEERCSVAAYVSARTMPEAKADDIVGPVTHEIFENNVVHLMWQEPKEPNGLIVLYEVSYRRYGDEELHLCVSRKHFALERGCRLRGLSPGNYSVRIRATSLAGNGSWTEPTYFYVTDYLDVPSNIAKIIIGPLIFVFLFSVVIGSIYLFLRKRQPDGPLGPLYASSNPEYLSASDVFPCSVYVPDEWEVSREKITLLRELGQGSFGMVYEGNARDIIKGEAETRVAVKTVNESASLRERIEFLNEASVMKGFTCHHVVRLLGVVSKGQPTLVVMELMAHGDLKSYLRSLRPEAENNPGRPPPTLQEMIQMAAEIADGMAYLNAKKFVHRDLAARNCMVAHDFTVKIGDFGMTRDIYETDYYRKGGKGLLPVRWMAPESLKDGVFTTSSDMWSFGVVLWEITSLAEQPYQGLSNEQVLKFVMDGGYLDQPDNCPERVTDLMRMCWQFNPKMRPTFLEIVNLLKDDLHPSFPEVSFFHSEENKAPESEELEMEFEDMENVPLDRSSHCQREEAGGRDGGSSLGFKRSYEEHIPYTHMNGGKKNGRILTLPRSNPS

Row | Compound | IR (human insulin receptor binding relative to that of human insulin) [%]
1 | FVNQHLCGSHLVEALYLVCGERGFFYTPETGLGKGQGIVEQCCTSICSLYQLEQYCN (disulfide 7-43, 19-56, 42-47) [compound 1835] | 50
2 | FVNQHLCGSHLVEALYLVCGERGFFYTPAVKLSSGQGIVEQCCTSICSLYQLEQYCN (disulfide 7-43, 19-56, 42-47) [compound 1874] | 83
3 | FVQQHLCGSHLVEALYLVCGERGFFYTPRKGLGSGQGIVEQCCTSICSLYQLEQYCG (disulfide 7-43, 19-56, 42-47) [compound 1818] | 125
4 | FVNQHLCGSHLVEALYLVCGERGFFYTPAVGLSSGQGIVEQCCKSICSLYQLEQYCN (disulfide 7-43, 19-56, 42-47) [compound 1884] | 89
5 | FVQQHLCGSHLVEALYLVCGERGFFYTPKAGLGSGQGIVEQCCTSICSLYQLEQYCN (disulfide 7-43, 19-56, 42-47) [compound 1816] | 37
6 | FVNQHLCGSHLVEALYLVCGERGFFYTPKVGLGGPGAGKGIVEQCCTSICSLYQLEQYCN (disulfide 7-46, 19-59, 45-50) [compound 1814] | 43
7 | FVNQHLCGSHLVEALYLVCGERGFFYTPKAGRGKGIVEQCCTSICSLYQLEQYCG (disulfide 7-41, 19-54, 40-45) [compound 1802] | 25
8 | CC[C@H](C)[C@@H]1NC(=O)CNC(=O)[C@H](CCCCN)NC(=O)CNC(=O)[C@H](CO)NC(=O)[C@H](CO)NC(=O)[C@H](CO)NC(=O)CNC(=O)[C@H](C(C)C)NC(=O)[C@@H]2CCCN2C(=O)[C@H](CCCCN)NC(=O)[C@@H]2CCCN2C(=O)[C@H]([C@@H](C)O)NC(=O)[C@H](Cc2ccc(O)cc2)NC(=O)[C@H](Cc2ccccc2)NC(=O)[C@H](Cc2ccccc2)NC(=O)CNC(=O)[C@H](CCCNC(=N)N)NC(=O)[C@H](CCC(=O)O)NC(=O)CNC(=O)[C@@H]2CSSC[C@@H](C(=O)NCC(=O)O)NC(=O)[C@H](Cc3ccc(O)cc3)NC(=O)[C@H](CCC(N)=O)NC(=O)[C@H](CCC(=O)O)NC(=O)[C@H](CC(C)C)NC(=O)[C@H](CCC(N)=O)NC(=O)[C@H](Cc3ccc(O)cc3)NC(=O)[C@H](CC(C)C)NC(=O)[C@H](CO)NC(=O)[C@@H]3CSSC[C@H](NC(=O)[C@H](CCC(N)=O)NC(=O)[C@H](CCC(=O)O)NC(=O)[C@H](C(C)C)NC1=O)C(=O)N[C@@H](CSSC[C@H](NC(=O)[C@H](CC(C)C)NC(=O)[C@H](Cc1c[nH]cn1)NC(=O)[C@H](CCC(N)=O)NC(=O)[C@H](CC(N)=O)NC(=O)[C@@H](NC(=O)[C@@H](N)Cc1ccccc1)C(C)C)C(=O)NCC(=O)N[C@@H](CO)C(=O)N[C@@H](Cc1c[nH]cn1)C(=O)N[C@@H](CC(C)C)C(=O)N[C@@H](C(C)C)C(=O)N[C@@H](CCC(=O)O)C(=O)N[C@@H](C)C(=O)N[C@@H](CC(C)C)C(=O)N[C@@H](Cc1ccc(O)cc1)C(=O)N[C@@H](CC(C)C)C(=O)N[C@@H](C(C)C)C(=O)N2)C(=O)N[C@@H]([C@@H](C)O)C(=O)N[C@@H](CO)C(=O)N[C@@H]([C@@H](C)CC)C(=O)N3 [compound 1769062] (H-FVNQHLCGSHLVEALYLVCGERGFFYTPKPVGSSSGKGIVEQCCTSICSLYQLEQYCG-OH; disulfide 7-44, 19-57, 43-48) | 56
9 | FVNQHLCGSHLVEALYLVCGERGFFYTPKVGLYSGKGIVEQCCTSICSLYQLEQYCG (disulfide 7-43, 19-56, 42-47) [compound 1788] | 323
10 | FVNQHLCGSHLVEALYLVCGERGFFYTPKQVGSSSGKGIVEQCCTSICSLYQLEQYCG (disulfide 7-44, 19-57, 43-48) [compound 1769013] | 33
11 | FVNQHLCGSHLVEALYLVCGERGFFYTPKAGRGSGPGIVEQCCTSICSLYQLEQYCG (disulfide 7-43, 19-56, 42-47) [compound 1767] | 28
12 | FVNQHLCGSHLVEALYLVCGERGFFYTPKVGSSSGKGIVEQCCTSICSLYQLENYCG (disulfide 7-43, 19-56, 42-47) [compound 1733] | 42
13 | GVQQHLCGSHLVEALYLVCGERGFFYTPKVGLSSGQGIVEQCCTSICSLYQLEQYCG (disulfide 7-43, 19-56, 42-47) [compound 1880] | 54
14 | FVNQHLCGSHLVEALYLVCGERGFFYTPKAGMGSGPGIVEQCCTSICSLYQLEQYCG (disulfide 7-43, 19-56, 42-47) [compound 1762] | 20
15 | CC[C@H](C)[C@@H]1NC(=O)CNC(=O)[C@H](CCC(N)=O)NC(=O)CNC(=O)[C@H](CCCCN)NC(=O)CNC(=O)[C@H](CC(C)C)NC(=O)CNC(=O)[C@H]([C@@H](C)O)NC(=O)[C@H](CCCNC(=N)N)NC(=O)[C@@H]2CCCN2C(=O)[C@H]([C@@H](C)O)NC(=O)[C@H](Cc2ccc(O)cc2)NC(=O)[C@H](Cc2ccccc2)NC(=O)[C@H](Cc2ccccc2)NC(=O)CNC(=O)[C@H](CCCNC(=N)N)NC(=O)[C@H](CCC(=O)O)NC(=O)CNC(=O)[C@@H]2CSSC[C@@H](C(=O)NCC(=O)O)NC(=O)[C@H](Cc3ccc(O)cc3)NC(=O)[C@H](CCC(N)=O)NC(=O)[C@H](CCC(=O)O)NC(=O)[C@H](CC(C)C)NC(=O)[C@H](CCC(N)=O)NC(=O)[C@H](Cc3ccc(O)cc3)NC(=O)[C@H](CC(C)C)NC(=O)[C@H](CO)NC(=O)[C@@H]3CSSC[C@H](NC(=O)[C@H](CCC(N)=O)NC(=O)[C@H](CCC(=O)O)NC(=O)[C@H](C(C)C)NC1=O)C(=O)N[C@@H](CSSC[C@H](NC(=O)[C@H](CC(C)C)NC(=O)[C@H](Cc1c[nH]cn1)NC(=O)[C@H](CCC(N)=O)NC(=O)[C@H](CCC(N)=O)NC(=O)[C@@H](NC(=O)[C@@H](N)Cc1ccccc1)C(C)C)C(=O)NCC(=O)N[C@@H](CO)C(=O)N[C@@H](Cc1c[nH]cn1)C(=O)N[C@@H](CC(C)C)C(=O)N[C@@H](C(C)C)C(=O)N[C@@H](CCC(=O)O)C(=O)N[C@@H](C)C(=O)N[C@@H](CC(C)C)C(=O)N[C@@H](Cc1ccc(O)cc1)C(=O)N[C@@H](CC(C)C)C(=O)N[C@@H](C(C)C)C(=O)N2)C(=O)N[C@@H]([C@@H](C)O)C(=O)N[C@@H](CO)C(=O)N[C@@H]([C@@H](C)CC)C(=O)N3 [compound 1820] | 55
16 | FVNQHLCGSHLVEALYLVCGERGFFYTPKHGLYSGKGIVEQCCTSICSLYQLEQYCG (disulfide 7-43, 19-56, 42-47) [compound 1791] | 226
17 | GVQQHLCGSHLVEALYLVCGERGFFYTPKVGSSSGKGIVEQCCTSICSLYQLEQYCG (disulfide 7-43, 19-56, 42-47) [compound 1740] | 90

Row | Compound | IR (human insulin receptor binding relative to that of human insulin) [%]
18 | FVNQHLCGSHLVEALYLVCGERGFFYEPETGLGKGRGIVEQCCTSICSLYQLEQYCN (disulfide 7-43, 19-56, 42-47) [compound 1848] | 40
19 | FVNQHLCGSALVEALYLVCGERGFFYTPKTGLGSGQGIVEQCCTSICSLYQLEQYCN (disulfide 7-43, 19-56, 42-47) [compound 1891] | 34
20 | FVNQHLCGSHLVEALYLVCGERGFFYKPAVGLSSGQGIVEQCCTSICSLYQLEQYCN (disulfide 7-43, 19-56, 42-47) [compound 1876] | 38
21 | FVNQHLCGSHLVEALYLVCGERGFFYTPEVGLYSGKGIVEQCCTSICSLYQLEQYCN (disulfide 7-43, 19-56, 42-47) [compound 1854] | 40
22 | FVQQHLCGSHLVEALYLVCGERGFFYTPRTGLGSGKGIVEQCCTSICSLYQLEQYCG (disulfide 7-43, 19-56, 42-47) [compound 1821] | 128
23 | FVQQHLCGSHLVEALYLVCGERGFFYTPKAGRGSGKGIVEQCCTSICSLYQLEQYCG (disulfide 7-43, 19-56, 42-47) [compound 1805] | 83
24 | FVNQHLCGSHLVEALYLVCGERGFFYTPKWASGSGKGIVEQCCTSICSLYQLEQYCG (disulfide 7-43, 19-56, 42-47) [compound 1784] | 23
25 | FVNQHLCGSHLVEALYLVCGERGFFYEPATGLGKGQGIVEQCCTSICSLYQLEQYCN (disulfide 7-43, 19-56, 42-47) [compound 1845] | 20
26 | FVKQHLCGSHLVEALYLVCGERGFFYTPKVGSSSGKGIVEQCCTSICSLYQLEQYCG (disulfide 7-43, 19-56, 42-47) [compound 1860] | 83
27 | FVNQHLCGSHLVEALYLVCGERGFFYTPKLVGSSSGKGIVEQCCTSICSLYQLEQYCG (disulfide 7-44, 19-57, 43-48) [compound 1769027] | 68
28 | FVNQHLCGSHLVEALYLVCGERGFFYEPATGLGKGRGIVEQCCTSICSLYQLEQYCN (disulfide 7-43, 19-56, 42-47) [compound 1847] | 82
29 | FVNQHLCGSHLVEALYLVCGERGFFYTPKVGLRSGKGIVEQCCTSICSLYQLEQYCG (disulfide 7-43, 19-56, 42-47) [compound 1789] | 248
30 | FVNQHLCGSHLVEALYLVCGERGFFYTKAVGLSSGQGIVEQCCTSICSLYQLEQYCN (disulfide 7-43, 19-56, 42-47) [compound 1875] | 35
31 | FVQQHLCGSHLVEALYLVCGERGFFYTPRCGIVEQCCTSICSLYQLEQYCG (disulfide 7-37, 19-50, 36-41) [compound 1819] | 47
32 | GVQQHLCGSHLVEALYLVCGERGFFYTPKGRGSGKGIVEQCCTSICSLYQLEQYCG (disulfide 7-42, 19-55, 41-46) [compound 1824] | 75
33 | FVNQHLCGSHLVEALYLVCGERGFFYTPKEVGSSSGKGIVEQCCTSICSLYQLEQYCG (disulfide 7-44, 19-57, 43-48) [compound 1769015] | 42
34 | FVNQHLCGSHLVEALYLVCGERGFFYTPKVGLGPGAGKGIVEQCCTSICSLYQLEQYCN (disulfide 7-45, 19-58, 44-49) [compound 1815] | 57
